# From PMC12136788
# The other results are listed elsewhere or left out.
# T1: UNK ZnF1-6 (called full-length) (human, UniProt Q9C0B0 30-357)
# T1 sequence: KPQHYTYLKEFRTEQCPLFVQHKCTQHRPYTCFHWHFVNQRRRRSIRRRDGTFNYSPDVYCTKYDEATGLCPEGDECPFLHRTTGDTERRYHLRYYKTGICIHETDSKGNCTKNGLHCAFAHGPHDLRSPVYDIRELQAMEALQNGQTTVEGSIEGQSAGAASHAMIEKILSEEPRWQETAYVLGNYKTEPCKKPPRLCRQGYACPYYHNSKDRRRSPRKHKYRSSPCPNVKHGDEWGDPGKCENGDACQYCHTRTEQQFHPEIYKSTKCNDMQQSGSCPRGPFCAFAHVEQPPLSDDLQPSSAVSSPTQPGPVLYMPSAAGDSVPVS
# B1: chr12:53210768:53210868:-|3pUTR|ENSG00000172819|msi1_unk|total|mutant (ssRNA)
# RNA: GGGAGUUCUACAGUCCGACGAUCAGGGGGGAUGCUGCUCCGCUGAUCCCGCCCUGACCCAGAGGAAGCCUCUAUUUAUUUAUCCGCUUUUGUUUACACCGUGGAAUUGACCCCUUCCUCCAGGGGUCUUGGGUGGGGGAGCCCCAACAGAGGAUUGAGCAUCA
# B2: chr20:34845330:34845491:-|CDS|ENSG00000131067|control|control|control (ssRNA)
# RNA: GGGAGUUCUACAGUCCGACGAUCUGAGUUCACAGAGGAAGAGAUUGAGUUCCUGGAAGCCAGGGGUCACCACGUGGAGAAAGUAGAUGUCUUAUCCUGGGUCCAUGGCAGCCGAAGGACCAACAACUUCAUCAUCGCUGUUAACAACAGAGGAUUGAGCAUCA
# B3: chr10:74118697:74119064:+|3pUTR|ENSG00000035403|msi1|total|mutant (ssRNA)
# RNA: GGGAGUUCUACAGUCCGACGAUCGAAGAAAUCACAGAAUCAUAUGAUUCUGCUUUUACCAUGCCCCUGAGCAAUGUCUGUGCCCGGGAAACUUCCCGUCCCAUAUCCUGCCUCAGCCCGCCAAGGCCGCCAUCCCAUGAACACCAACAGAGGAUUGAGCAUCA
# B4: ENSG00000140391:stop:overlap|stop_codon|ENSG00000140391|stop_codon|NA|stop_codon (ssRNA)
# RNA: GGGAGUUCUACAGUCCGACGAUCUGUGCAGAAGGAGUAGAGAUCCUGCUUACGAGCUCCUCAUCACUGGCGGAACCUAUGCAUAGUUGACAACUCAAGCCUGAGCUUUUUGGUCUUGUUCUGAUUUGGAAGGUGAAUUGAGCACAACAGAGGAUUGAGCAUCA
# B5: chr12:13219749:13219850:+|3pUTR|ENSG00000134531|unk|total|mutant (ssRNA)
# RNA: GGGAGUUCUACAGUCCGACGAUCACAACAGUGGAUGGGGAGGAAGAACAGACUUUUGAGCUCUUCCCAAUACCGGAAUGUGUCCGUUCUAAAAAUUUUCUUAAGUUGUUUGCUUGGAACUCAGAGUAUAUUUUUCCAUACGAACAACAGAGGAUUGAGCAUCA
# B6: ENSG00000136451:be:win_451|CDS|ENSG00000136451|bound_else_gene|NA|bound_elsewhere_windowed (ssRNA)
# RNA: GGGAGUUCUACAGUCCGACGAUCAGUGCCAGCACCACAGCUAUGCCAGUGACCCAGUCUGUCAAGAAACCCAGUAAGCCUGUCAAGAAGAACCAUGCUUGUGAGAUGUGUGGGAAGGCCUUCCGAGAUGUGUACCAUCUCAAUCAACAGAGGAUUGAGCAUCA
# B7: chr17:40866619:40867186:-|CDS|ENSG00000187242|control|control|control (ssRNA)
# RNA: GGGAGUUCUACAGUCCGACGAUCUGAUAGAUUAGCUUCCUACCUGGAUAAGGUGCGAGCUCUAGAAGAGGCUAAUACUGAGCUAGAAAAUAAAAUUCGAGAAUGGUAUGAAACACGAGGAACUGGGACUGCAGAUGCUUCACACAACAGAGGAUUGAGCAUCA
# B8: chr14:31448161:31448454:-|three_prime_utr|ENSG00000129480|control|control|control (ssRNA)
# RNA: GGGAGUUCUACAGUCCGACGAUCUGGAAAAGAAGAAGGGUUUGAACUUUACUCUCAAUUUGUGACUCUAUGUGAAAAAGAAGUAGCUGCUAAUAGCAAGUGUGCUGAAGCUAGGGUUGUAGUGGAACAUGGCACUUAUGGGAACAACAGAGGAUUGAGCAUCA
# B9: chr12:49127802:49127903:-|3pUTR|ENSG00000123416|msi1_unk|FALSE|overlapping (ssRNA)
# RNA: GGGAGUUCUACAGUCCGACGAUCAUGUCAUGCUCCCAGAAUUUCAGCUUCAGCUUAACUGACAGACGUUAAAGCUUUCUGGUUAGAUUGUUUUCACUUGGUGAUCAUGUCUUUUCCAUGUGUACCUGUAAUAUUUUUCCAUCACAACAGAGGAUUGAGCAUCA
# B10: chr10:91942452:91942553:+|CDS|ENSG00000095564|unk|FALSE|unique (ssRNA)
# RNA: GGGAGUUCUACAGUCCGACGAUCAGUUCUAUGGAAGAUUCACCUACUACAGAGCGAUUGAAUUUUGACAGAUUUGAUAUAUGUAGAUUGUUACAACAUGGUGCAUCACUCCUGGGAUCUGCUGGUGCCGAAUUUGAAGUCCAACAACAGAGGAUUGAGCAUCA
# B11: ENSG00000166402:stop:overlap|stop_codon|ENSG00000166402|stop_codon|NA|stop_codon (ssRNA)
# RNA: GGGAGUUCUACAGUCCGACGAUCGUGCACUGCAGGCCUUUGCCAUUGCCCUGUCCAGCUUCGACAGCAAGCUGGCGUGCGAGUAGAGGCCUCUUCGUGCCCUUUGGGGUUGCCCAGCCUGGAGCGGAGCUUGCCUGCCUGCCUCAACAGAGGAUUGAGCAUCA
# B12: ENSG00000107863:be:win_401|CDS|ENSG00000107863|bound_else_gene|NA|bound_elsewhere_windowed (ssRNA)
# RNA: GGGAGUUCUACAGUCCGACGAUCGCAAAACCUAUUCCCAAGUAAUUGCUUUAAUUCAAAACAGUGAUACAACAUUGGAACUUAGUGUUAUGCCAAAAGAUGAAGACAUUCUCCAAGUGCUACAGUUUACAAAGGAUGUCACAGCAACAGAGGAUUGAGCAUCA
# B13: chr14:102729990:102730091:+|3pUTR|ENSG00000089902|msi1|total|mutant (ssRNA)
# RNA: GGGAGUUCUACAGUCCGACGAUCUGCGAUGCUCUUUCUGCCAGUCCCUGAAUCUCUGCAGCUUCUCUUACCUGUCUUACCUGCCGUAAAGCACAAUUGCAGUGGCGUCGCAUUCAGAAGAAGGGAAGGUCAGCAGAGGCUAUGCAACAGAGGAUUGAGCAUCA
# B14: chrX:112630647:112631419:-|three_prime_utr|ENSG00000182508|control|control|control (ssRNA)
# RNA: GGGAGUUCUACAGUCCGACGAUCAGAAGAUUGGAGAGGGUGGGAAAGGGGAGGAGGGAGCCCUGAAAAGAGGUACUAAGGAUUAGGCCAUUUGUCAUCUGACUGUCAUUAGCAUAGCCUAGUGUUUGCAUGCUUUUUAAACUACAACAGAGGAUUGAGCAUCA
# B15: chr9:83806335:83806438:-|CDS|ENSG00000165113|unk|FALSE|unique (ssRNA)
# RNA: GGGAGUUCUACAGUCCGACGAUCUGGCUCUGAUUCUGAACCUGGAAAAGGUAAAGGUCGAAAUACUGGAAAGUCUCAAACUUUAGGAAGCAAGUCAACUACAAAUGAGAAAAAAAGAGAGAAAAGAAGAAAAAAGAAGGAACACAACAGAGGAUUGAGCAUCA
# B16: chr15:42211119:42211220:-|3pUTR|ENSG00000103978|unk|total|mutant (ssRNA)
# RNA: GGGAGUUCUACAGUCCGACGAUCAGGUUACAUCUUGCAGAGGUUGUUUUGAGAAAAAAGGGCCCUUCUGAGUUAAGGAGCCACCGUUCUAUCAAUGAUCAAAAGAAAAAAAAAAAAAGAGAAACUGUUACAGUAUGAUUCAGACAACAGAGGAUUGAGCAUCA
# Target: T1, UNK ZnF1-6 (called full-length)
# Test: nsRBNS (natural sequence RNA bind-n-seq); RBNS binding buffer (assumed for nsRBNS): 25 mM Tris pH 7.5, 150 mM KCl, 3 mM MgCl2, 0.01% Triton X-100, 500 ug/ml BSA, 20 U/ml SUPERase-In, 4 C; UNK is unkempt and MSI1 is Musashi-1; names of the RNAs are library labels; protein concentration not given here; high values mean tight binding
row,Binder,binding signal [enrichment R]
1,B1,1.11
2,B2,0.85
3,B3,0.805
4,B4,1.41
5,B5,0.58
6,B6,0.59
7,B7,0.986
8,B8,0.39
9,B9,0.751
10,B10,0.337
11,B11,0.658
12,B12,0.38
13,B13,0.539
14,B14,1.14
15,B15,1.04
16,B16,0.451
